# Test results from the supplement of paper PMC8728848.
# Some of the results follow.
# B1: CVN-E41G (protein)
# chain: MHHHHHHENLYFQSGNFSQACYNSAIQGSVLTSTCIRTNGGYNTSSIDLNSVIANVDGSLKWQGSNFIETCRNTQLAGSSELAAECKTRAQQFVSTKINLDDHIAAIDGTLKYE
# Key:
# Experiment in all cases: glycan array binding signal (z-score within array); higher = stronger binding
# Settings in all cases: glycan notation: IUPAC condensed, linker removed; mutation: E41A
# Gal6S(b1-4)Glc = biological target: Gal6S(b1-4)Glc
# In short: (§1)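 Negative Z-scores can be read as non-binding. The Z-score is calculated within each array and then averaged across arrays of one protein sequence at different concentrations or buffers and across linkers. Arrays, 3228 in all, were curated from the Consortium for Functional Glycomics database and kept only where the protein sequence was available.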
# Gal6S(b1-4)Glc6S = biological target: Gal6S(b1-4)Glc6S
# In short: as §1
# Gal6S(b1-4)GlcNAc = biological target: Gal6S(b1-4)GlcNAc
# In short: as §1
# Gal6S(b1-4)GlcNAc6S = biological target: Gal6S(b1-4)GlcNAc6S
# In short: as §1
# GalNAc(a1-3)Gal = biological target: GalNAc(a1-3)Gal
# In short: as §1
# GalNAc(a1-3)GalNAc = biological target: GalNAc(a1-3)GalNAc
# In short: as §1
# [1] = biological target: GalNAc(a1-3)GalNAc(b1-3)Gal(a1-4)Gal(b1-4)Glc
# In short: as §1
# [2] = biological target: GalNAc(a1-3)GalNAc(b1-3)Gal(a1-4)Gal(b1-4)GlcNAc
# In short: as §1
# GalNAc(b1-3)Gal = biological target: GalNAc(b1-3)Gal
# In short: as §1
# [3] = biological target: GalNAc(b1-3)Gal(a1-4)Gal(b1-4)GlcNAc
# In short: as §1
# [4] = biological target: GalNAc(b1-3)Gal(a1-4)Gal(b1-4)GlcNAc(b1-3)Gal(b1-4)Glc
# In short: as §1
# [5] = biological target: GalNAc(b1-3)Gal(a1-6)Gal(b1-4)Glc
# In short: as §1
# GalNAc(b1-3)GalNAc = biological target: GalNAc(b1-3)GalNAc
# In short: as §1
# GalNAc(b1-3)GlcNAc = biological target: GalNAc(b1-3)GlcNAc
# In short: as §1
# GalNAc(b1-4)Gal(b1-4)Glc = biological target: GalNAc(b1-4)Gal(b1-4)Glc
# In short: as §1
# GalNAc(b1-4)GlcNAc = biological target: GalNAc(b1-4)GlcNAc
# In short: as §1
# [6] = biological target: GalNAc(b1-4)GlcNAc(b1-2)Man
# In short: as §1
# [7] = biological target: GalNAc(b1-4)GlcNAc(b1-2)Man(a1-3)[GalNAc(b1-4)GlcNAc(b1-2)Man(a1-6)]Man(b1-4)GlcNAc(b1-4)GlcNAc
# In short: as §1
# [8] = biological target: GalNAc(b1-4)GlcNAc(b1-3)GalNAc(b1-4)GlcNAc
# In short: as §1
# GalNAc(b1-4)GlcNAc6S = biological target: GalNAc(b1-4)GlcNAc6S
# In short: as §1
# GalNAc(b1-6)GalNAc = biological target: GalNAc(b1-6)GalNAc
# In short: as §1
# GalNAc3S(b1-4)GlcNAc = biological target: GalNAc3S(b1-4)GlcNAc
# In short: as §1
# GalNAc3S(b1-4)GlcNAc3S = biological target: GalNAc3S(b1-4)GlcNAc3S
# In short: as §1
# [9] = biological target: GalNAc3S(b1-4)[Fuc(a1-3)]GlcNAc
# In short: as §1
# GalNAc4S6S(b1-4)GlcNAc = biological target: GalNAc4S6S(b1-4)GlcNAc
# In short: as §1
# GalNAc6S(b1-4)GlcNAc = biological target: GalNAc6S(b1-4)GlcNAc
# In short: as §1
# Glc(a1-4)Glc = biological target: Glc(a1-4)Glc
# In short: as §1
# [10] = biological target: Glc(a1-4)Glc(a1-4)Glc(a1-4)Glc
# In short: as §1
# Glc(a1-6)Glc(a1-6)Glc = biological target: Glc(a1-6)Glc(a1-6)Glc
# In short: as §1
# [11] = biological target: Glc(a1-6)Glc(a1-6)Glc(a1-6)Glc
# In short: as §1
# Glc(b1-4)Glc = biological target: Glc(b1-4)Glc
# In short: as §1
# Glc(b1-6)Glc = biological target: Glc(b1-6)Glc
# In short: as §1
# GlcA(b1-3)Gal = biological target: GlcA(b1-3)Gal
# In short: as §1
# GlcA(b1-3)GlcNAc = biological target: GlcA(b1-3)GlcNAc
# In short: as §1
# GlcA(b1-6)Gal = biological target: GlcA(b1-6)Gal
# In short: as §1
# [12] = biological target: GlcA3S(b1-3)Gal(b1-4)GlcNAc(b1-2)Man
# In short: as §1
# [13] = biological target: GlcA3S(b1-3)Gal(b1-4)GlcNAc(b1-3)Gal(b1-4)Glc
# In short: as §1
# [14] = biological target: GlcNAc(a1-3)Gal(b1-4)GlcNAc
# In short: as §1
# [15] = biological target: GlcNAc(a1-4)Gal(b1-3)GlcNAc
# In short: as §1
# [16] = biological target: GlcNAc(a1-4)Gal(b1-4)GalNAc
# In short: as §1
# [17] = biological target: GlcNAc(a1-4)Gal(b1-4)GlcNAc
# In short: as §1
# [18] = biological target: GlcNAc(a1-4)Gal(b1-4)GlcNAc(b1-3)Gal(b1-4)Glc
# In short: as §1
# [19] = biological target: GlcNAc(a1-4)Gal(b1-4)GlcNAc(b1-3)Gal(b1-4)GlcNAc
# In short: as §1
# [20] = biological target: GlcNAc(a1-4)Gal(b1-4)GlcNAc(b1-3)Gal(b1-4)GlcNAc(b1-3)Gal(b1-4)GlcNAc
# In short: as §1
# [21] = biological target: GlcNAc(a1-4)Gal(b1-4)GlcNAc(b1-3)Gal(b1-4)[Fuc(a1-3)]GlcNAc(b1-3)Gal(b1-4)[Fuc(a1-3)]GlcNAc
# In short: as §1
binder,measurement,setting,value
B1,glycan array binding signal (z-score),Gal6S(b1-4)Glc,-0.227
same,glycan array binding signal (z-score),Gal6S(b1-4)Glc6S,-0.198
same,glycan array binding signal (z-score),Gal6S(b1-4)GlcNAc,-0.203
same,glycan array binding signal (z-score),Gal6S(b1-4)GlcNAc6S,-0.21
same,glycan array binding signal (z-score),GalNAc(a1-3)Gal,-0.219
same,glycan array binding signal (z-score),GalNAc(a1-3)GalNAc,-0.252
same,glycan array binding signal (z-score),[1],-0.23
same,glycan array binding signal (z-score),[2],-0.21
same,glycan array binding signal (z-score),GalNAc(b1-3)Gal,-0.199
same,glycan array binding signal (z-score),[3],-0.091
same,glycan array binding signal (z-score),[4],-0.21
same,glycan array binding signal (z-score),[5],-0.225
same,glycan array binding signal (z-score),GalNAc(b1-3)GalNAc,-0.228
same,glycan array binding signal (z-score),GalNAc(b1-3)GlcNAc,-0.209
same,glycan array binding signal (z-score),GalNAc(b1-4)Gal(b1-4)Glc,-0.154
same,glycan array binding signal (z-score),GalNAc(b1-4)GlcNAc,-0.163
same,glycan array binding signal (z-score),[6],-0.204
same,glycan array binding signal (z-score),[7],-0.204
same,glycan array binding signal (z-score),[8],-0.186
same,glycan array binding signal (z-score),GalNAc(b1-4)GlcNAc6S,-0.069
same,glycan array binding signal (z-score),GalNAc(b1-6)GalNAc,-0.215
same,glycan array binding signal (z-score),GalNAc3S(b1-4)GlcNAc,-0.228
same,glycan array binding signal (z-score),GalNAc3S(b1-4)GlcNAc3S,-0.242
same,glycan array binding signal (z-score),[9],-0.189
same,glycan array binding signal (z-score),GalNAc4S6S(b1-4)GlcNAc,-0.245
same,glycan array binding signal (z-score),GalNAc6S(b1-4)GlcNAc,-0.231
same,glycan array binding signal (z-score),Glc(a1-4)Glc,-0.186
same,glycan array binding signal (z-score),[10],-0.25
same,glycan array binding signal (z-score),Glc(a1-6)Glc(a1-6)Glc,0.143
same,glycan array binding signal (z-score),[11],-0.116
same,glycan array binding signal (z-score),Glc(b1-4)Glc,-0.16
same,glycan array binding signal (z-score),Glc(b1-6)Glc,-0.095
same,glycan array binding signal (z-score),GlcA(b1-3)Gal,-0.164
same,glycan array binding signal (z-score),GlcA(b1-3)GlcNAc,0.793
same,glycan array binding signal (z-score),GlcA(b1-6)Gal,0.013
same,glycan array binding signal (z-score),[12],-0.205
same,glycan array binding signal (z-score),[13],-0.191
same,glycan array binding signal (z-score),[14],-0.218
same,glycan array binding signal (z-score),[15],-0.204
same,glycan array binding signal (z-score),[16],-0.215
same,glycan array binding signal (z-score),[17],-0.214
same,glycan array binding signal (z-score),[18],-0.219
same,glycan array binding signal (z-score),[19],-0.213
same,glycan array binding signal (z-score),[20],-0.199
same,glycan array binding signal (z-score),[21],-0.122
